From PubChem BioAssay AID624417 (National Center for Advancing Translational Sciences (NCATS), 2012)
Several values for one entry are separate records, joined by “and”; a condition that tells them apart may be missing. Equal values may be shown once. About 6,400 (1.6%) of roughly 410,000 compounds were called active. The shares of active, inactive and inconclusive entries below differ from those in the screen. Calls follow the shape of the dose curve; as a rule, active = well fitted inhibition curve with a large enough effect; inconclusive = small, poorly fitted or top-dose-only effect; inactive = no such curve, though single readings can be large or run the other way. Where the call is inconclusive, the potency comes from a doubtful curve fit.

These compounds were tested against Glucagon-like peptide 1 receptor (Homo sapiens) (UniProt P43220) (assay: qHTS of GLP-1 Receptor Inverse Agonists (Inhibition Mode)). Conditions: HEK293 GLP-1R CRE-luciferase, luminescence, 24 h, GLP-1R form is constitutively active; activity change, negative = inhibition: at 38.3 µM (top of the series) unless noted.
How it was run: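 Seeding at 200 cells/uL, 12 h culture, 24 hr compound treatment, then luciferase reagent and a luminescence read; cells are HEK293 stably expressing a constitutively active GLP-1R plus cAMP-responsive luciferase.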
% is scaled to controls: 0 for no effect and ±100 for the full control effect; potency is read from the fitted curve at half-maximal effect; tags tell the direction and shape of the fitted curve.
Also: nearly all actives have a fitted effect of over 55% in size.

Sequence of UniProt P43220 (P43220 whole entry, looked up): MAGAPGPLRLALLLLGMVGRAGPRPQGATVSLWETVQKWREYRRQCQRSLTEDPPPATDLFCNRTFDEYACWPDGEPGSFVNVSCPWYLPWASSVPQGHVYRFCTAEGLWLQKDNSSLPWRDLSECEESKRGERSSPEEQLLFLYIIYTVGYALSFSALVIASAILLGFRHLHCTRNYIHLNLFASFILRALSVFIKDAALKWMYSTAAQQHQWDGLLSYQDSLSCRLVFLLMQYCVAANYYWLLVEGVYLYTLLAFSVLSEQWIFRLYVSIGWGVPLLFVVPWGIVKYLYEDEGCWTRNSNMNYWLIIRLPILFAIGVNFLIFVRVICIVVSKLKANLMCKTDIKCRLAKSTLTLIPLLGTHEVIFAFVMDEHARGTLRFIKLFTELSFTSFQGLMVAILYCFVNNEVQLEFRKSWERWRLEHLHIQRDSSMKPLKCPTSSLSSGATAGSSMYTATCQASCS

Potency, inconclusive:
CC(C)c1ccc(NC(=O)C2CCN(C(=O)[C@@H]3Cc4ccccc4CN3)CC2)cc1 10 µM [inhibitor, partial curve, poor fit], Cc1ccc(N/C(C(Cl)=C(Cl)Cl)=C(/Cl)[N+](=O)[O-])c(C)c1 28.2 µM [inhibitor, single point], O=[N+]([O-])c1cc(S(=O)(=O)NC2=NCCCCC2)ccc1NCC1CCCCC1 10 µM [inhibitor, partial curve, poor fit], COc1ccccc1C1CCN(c2ccc(CO)cc2[N+](=O)[O-])CC1 10 µM [inhibitor, partial curve], COc1ccc(-c2n[nH]c(C)c2-c2cnn(-c3ccccc3)c2)c(O)c1 8.91 µM [inhibitor, single point], COc1cccc(NC(=S)N(Cc2cccc(Br)c2)CC2CCC(C(=O)O)CC2)c1 (stereo unspecified) 31.6 µM [inhibitor, single point], O=C(COc1ccc(S(=O)(=O)NC2CCCCC2)cc1)NCCC1=CCCCC1 11.2 µM [inhibitor, single point], CCCCc1sc(-c2c(C#N)c(N)nc3c2CCCCC3)cc1[N+](=O)[O-] 2 µM [inhibitor, partial curve, poor fit], Cn1nccc1C(=O)NC1CCCc2c1cnn2-c1ccc(C(C)(C)C)cc1 (stereo unspecified) 15.8 µM [inhibitor, partial curve, poor fit], CC1CN(S(=O)(=O)c2cccc(C(=O)Nc3ccccc3N3CCCC3)c2)CC(C)O1 (stereo unspecified) 12.6 µM [inhibitor, single point], COc1ccc(-c2ccc(C(=O)NCc3ccccc3)c3occc23)c(C)c1 11.2 µM [inhibitor, single point], Cc1ccc(S(=O)(=O)N2C3CCCCC3O[C@H]2CC(=O)Oc2ccccc2)cc1 (stereo partly specified) 14.1 µM [inhibitor, single point], CC(=O)c1c(C)[nH]c(C(=O)OCc2ccccc2F)c1C 28.2 µM [inhibitor, single point], O=C(CSc1nc2nccnc2c(=O)n1CCc1c[nH]c2ccccc12)Nc1ccccc1 7.94 µM [inhibitor, partial curve, poor fit], CC(O)(c1ccccc1)c1nc(-c2ccc(F)c(Cl)c2)cs1 (stereo unspecified) 22.4 µM [inhibitor, single point], C=CCC1CCCCC12NC(=O)N(c1ccccc1)N2 (stereo unspecified) 12.6 µM [inhibitor, single point], CC(C)C[C@@H](CSc1ccccc1)N1CCN(CCc2ccccc2)CCC1=O 10 µM [inhibitor, partial curve], COc1cccc(NC(=O)CN(C)C(=O)c2cccc(S(=O)(=O)N3c4ccccc4CC3C)c2)c1 (stereo unspecified) 11.2 µM [inhibitor, partial curve, poor fit], COc1ccc(Cn2c(C)c(C)c(C#N)c2NC(=O)Nc2ccccc2)cc1 0.891 µM [inhibitor, full curve, poor fit], O=C(NCCCN1CCCCC1)c1ccc2c(c1)NC(=O)c1ccccc1S2 28.2 µM [inhibitor, single point], O=C(NCCCn1ccnc1)c1cc2nc(-c3ccc(Br)cc3)cc(C(F)(F)F)n2n1 2.24 µM [inhibitor, partial curve, poor fit], O=C(Cc1ccc(S(=O)(=O)N2CCOCC2)s1)Nc1ccc2c(c1)CCC2 28.2 µM [inhibitor, single point], COc1ccccc1CN1CCN(Cc2nc(-c3cccs3)no2)CC1 28.2 µM [inhibitor, single point], Cc1cc(C)cc(N(CCC#N)C(=O)COC(=O)C2CCN(c3ccc(C(F)(F)F)cn3)CC2)c1 14.1 µM [inhibitor, partial curve, poor fit], Cc1cc(C(O)c2ncc(-c3ccc(Oc4ccccc4)cc3)[nH]2)ccc1F (stereo unspecified) 10 µM [inhibitor, partial curve, poor fit], CN1CCN(c2ncnc3c2c(-c2ccccc2)cn3-c2ccc(F)cc2)CC1 2.51 µM [inhibitor, partial curve, poor fit], COc1cc(SC)ccc1C(=O)N1CCc2ccccc21 10 µM [inhibitor, partial curve], COc1ccc(N(CC(=O)NCCC2=CCCCC2)S(=O)(=O)c2ccccc2F)cc1 12.6 µM [inhibitor, single point], CCOC(=O)N1CCC(N2C(=O)c3ccccc3C2Nc2ccc3c(c2)OCCO3)CC1 (stereo unspecified) 2.51 µM [inhibitor, full curve], CSCCC(c1nnnn1-c1c(C)cccc1C)N1CCN(C/C=C/c2ccccc2)CC1 (stereo unspecified) 15.8 µM [inhibitor, single point], COc1cc(O)c(C(CCN2CCCC(C)C2)c2ccc(N(C)C)cc2)c(OC)c1 (stereo unspecified) 14.1 µM [inhibitor, partial curve, poor fit], COc1cccc(-c2cc(C(=O)NCc3ccco3)c3ccccc3n2)c1 10 µM [inhibitor, partial curve, poor fit], Cc1cc(C(=O)CSc2ccc3c(c2)OCCO3)c(C)n1C1CC1 28.2 µM [inhibitor, single point], CC(C)(C)C1CCN2CCC[C@](c3ccccc3)(C1)[C@@]21CO1 (stereo partly specified) 28.2 µM [inhibitor, single point], COc1ccc(/C=C/C(=O)N2CCCc3ccccc32)c(OC)c1 28.2 µM [inhibitor, single point], O=[N+]([O-])c1ccc(Sc2nccn2Cc2ccccc2)c([N+](=O)[O-])c1 12.6 µM [inhibitor, single point], CCO[C@H]1OC(C(=O)Nc2ccccc2)=C[C@@H](c2ccc(Br)cc2)[C@@H]1CCCO 10 µM [inhibitor, partial curve, poor fit], CCOc1ccc(NC(=O)CN(C)C(=O)c2cn(-c3ccc(C)cc3)nc2-c2cccc(OC)c2)cc1OCC 12.6 µM [inhibitor, partial curve, poor fit], CC1Nc2ncnc(N3CCc4ccccc4C3)c2N(Cc2ccc(Br)cc2)C1=O (stereo unspecified) 12.6 µM [inhibitor, single point] and 28.2 µM [inhibitor, single point], O=S(=O)(c1cccs1)N1CN(C2CCCC2)c2nc3ccccc3nc21 28.2 µM [inhibitor, single point], O=C(NN1C(=O)C2C(c3ccccc3)C=CC(c3ccccc3)C2C1=O)c1cccc(Br)c1 (stereo unspecified) 22.4 µM [inhibitor, single point], Cc1ccc(-n2nc3c(=O)n(CC(=O)NCCc4ccccc4C)nc(C)c3c2C)cc1 3.55 µM [inhibitor, full curve, poor fit], Cc1ccc(C)c(CNC(=O)Nc2ccccc2)c1 28.2 µM [inhibitor, single point], CCS(=O)(=O)N1CCc2cc(C(=O)N3CCN(c4ccccc4OC)CC3)ccc21 10 µM [inhibitor, partial curve, poor fit], Cc1ccc(C)c(NC(=S)NC(NC(=O)Cc2cccc3ccccc23)C(Cl)(Cl)Cl)c1 (stereo unspecified) 2 µM [inhibitor, full curve, poor fit], Oc1[nH]c2c(Cl)cc(Cl)cc2c1N=NC(=S)NCC1CCCO1 (stereo unspecified) 3.98 µM [inhibitor, full curve, poor fit], COc1ccccc1-c1cc(NC=O)c2ncc(-c3ccc(F)cc3)n2c1 17.8 µM [inhibitor, partial curve, poor fit], Cc1cc(C(=O)c2ccc(Cl)cc2)c(NC(=O)CCl)s1 28.2 µM [inhibitor, single point]

Activity change, negative = inhibition, inactive:
S=C(N/N=C/c1ccc(Br)cc1)N1CCCCC1 3.57%, COc1ccc(NC(=O)N(C)C[C@@H]2OCc3cn(nn3)CCCC(=O)N([C@H](C)CO)C[C@H]2C)c(OC)c1 -5.31%, Cc1oc2cc3oc(=O)c(CC(=O)NCc4ccccc4)c(C)c3cc2c1C 5.63%, CS(=O)(=O)c1ccc(C(=O)OCC(=O)NC(=O)C2CCCCC2)cc1[N+](=O)[O-] 4.44%, COc1ccc(S(=O)(=O)N2CCC(N3CCN(Cc4ccc(F)cc4)C(=O)C3=O)CC2)cc1 4.74%, CCOC(=O)c1nn(-c2cc(C(=O)OC)cc(C(=O)OC)c2)cc1O 6.52%, CCC(=O)N1c2ccc(S(=O)(=O)CCC(=O)N3CCN(c4cc(C)ccc4C)CC3)cc2CC1C (stereo unspecified) 23.5%, O=C(O)CCCN1C(=O)/C(=C\c2ccco2)SC1=S 19.6%, Nc1nc(-c2ccco2)cs1 6.08%, COC(=O)N/N=C/c1ccc(-c2ccc(C)c(Cl)c2)o1 15.1%, COc1ccc(OC)c(/C(O)=C/C(=O)C(=O)Nc2cc(C)cc(C)c2)c1 -4.53%, C/C(=N\NC(=S)NCc1ccccc1)c1ccc(C#N)cc1 22.6%, CC(C)(C)OC(=O)N1CCc2nc(N3CCN(c4ncccn4)CC3)ncc2C1 4.72%
